Reference: PMC4336329 (PLoS ONE, 2015)
In all, about 310,000 compounds went through this assay and about 2,200 (0.71%) showed an effect of 50% or more. Effects have a minus sign here. Some of the results follow.

target: human ether-à-go-go-related gene (hERG) potassium channel (human, UniProt Q12809); assay: primary screen, population patch clamp on CHO cells stably expressing hERG
Sequence (Q12809 whole entry, looked up): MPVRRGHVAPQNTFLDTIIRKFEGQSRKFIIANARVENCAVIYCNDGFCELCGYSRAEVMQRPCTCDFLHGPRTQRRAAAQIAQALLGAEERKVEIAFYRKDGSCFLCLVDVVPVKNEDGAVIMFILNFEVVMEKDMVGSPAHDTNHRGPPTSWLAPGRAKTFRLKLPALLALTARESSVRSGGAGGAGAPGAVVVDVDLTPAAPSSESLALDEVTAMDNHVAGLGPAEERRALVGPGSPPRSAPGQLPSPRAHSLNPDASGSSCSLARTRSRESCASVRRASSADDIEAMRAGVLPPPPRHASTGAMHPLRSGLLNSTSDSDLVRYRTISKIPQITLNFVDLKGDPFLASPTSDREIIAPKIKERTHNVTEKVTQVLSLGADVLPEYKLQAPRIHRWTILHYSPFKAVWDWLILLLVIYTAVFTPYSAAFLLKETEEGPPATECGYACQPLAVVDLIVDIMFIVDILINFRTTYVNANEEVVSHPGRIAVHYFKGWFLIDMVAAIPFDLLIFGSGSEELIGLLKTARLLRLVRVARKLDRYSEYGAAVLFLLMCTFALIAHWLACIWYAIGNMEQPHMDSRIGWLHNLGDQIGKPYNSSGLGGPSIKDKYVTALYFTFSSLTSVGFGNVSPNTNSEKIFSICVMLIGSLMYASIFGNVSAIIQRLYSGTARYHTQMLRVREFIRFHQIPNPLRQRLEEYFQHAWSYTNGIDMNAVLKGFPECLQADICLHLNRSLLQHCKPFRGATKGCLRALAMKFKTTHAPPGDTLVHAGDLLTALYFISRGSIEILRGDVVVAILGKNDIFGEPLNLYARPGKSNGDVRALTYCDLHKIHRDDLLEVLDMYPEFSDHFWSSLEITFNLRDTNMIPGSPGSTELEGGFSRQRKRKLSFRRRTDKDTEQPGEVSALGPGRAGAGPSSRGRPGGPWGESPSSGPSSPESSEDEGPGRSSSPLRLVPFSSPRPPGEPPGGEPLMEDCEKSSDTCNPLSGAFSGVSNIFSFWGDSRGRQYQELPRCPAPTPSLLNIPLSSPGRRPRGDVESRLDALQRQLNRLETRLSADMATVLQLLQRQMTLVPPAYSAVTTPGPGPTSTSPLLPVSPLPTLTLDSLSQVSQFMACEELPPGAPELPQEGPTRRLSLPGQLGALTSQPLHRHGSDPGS

SMILES	hERG current change (%, negative = inhibition) at 1uM [%]
CC(=O)c1cc2c(cc1NC(=O)CN1CCN(c3ccc(F)cc3)CC1)OCO2	12
Cc1ccc(C(=O)NCc2nc3ccccc3[nH]2)o1	7.59
CC1=NN(C(N)=S)C(=O)C1N=Nc1ccccc1Cl (stereo not shown)	12.9
CCNc1cc(=O)n(C)c(=O)n1C	1.89
O=C(N/N=C/C=C\c1ccccc1[N+](=O)[O-])c1ccccn1	10.7
COC(=O)N1C(=O)[C@](Cc2ccccc2)(c2ccccc2)N1C(=O)OC	15.4
CC(/C=N/NC(=O)CSc1nnc(SCc2ccccc2)s1)=C\c1ccco1	0.144
Cc1ccnc(NC(=O)CCC(=O)N(CC(=O)NC2CCCCC2)Cc2cccs2)c1	12.5
CC(C)(CO)N1CCN(C(=S)Nc2ccccc2)CC1	13.8
COC(=O)C1C(O)=C(C(C)=Nc2cccc3ccccc23)C(=O)CC1(C)C (stereo not shown)	12.6
O=C(O)CCC(=O)Nc1ccc(Cc2ccc(NC(=O)CCC(=O)O)cc2)cc1	10.4
Cc1cc(NC(=O)C2CC(c3ccccc3Cl)=NO2)no1 (stereo not shown)	15.3
Cc1ccc2[nH]c3c(c2c1)CN(C(=O)CN1CCN(Cc2ccc4c(c2)OCO4)CC1)CC3	-1.37
O=C1C=C(O)CC(c2ccc(Cl)cc2)C1 (stereo not shown)	12.3
COc1cccc(/C=C/c2nc(C#N)c(NCC(C)C)o2)c1	14
CCOc1ccc(S(=O)(=O)Nc2cc(S(=O)(=O)N(CC)CC)ccc2N2CCCC2)cc1	12
COc1cccc(C(=O)NCCN2CCOCC2)c1	9.04
COc1ccc(C(C2C(=O)CC(C)(C)CC2=O)C2C(=O)CC(C)(C)CC2=O)cc1	4.1
CC(NC(=O)COC(=O)C1CCN(c2ccc(C(F)(F)F)cn2)CC1)c1ccc(Br)cc1 (stereo not shown)	1.22
COC(CNC(=O)c1ccc2nc(-c3ccccc3)c(-c3ccccc3)nc2c1)OC	11.5

SMILES	hERG current change (%, negative = inhibition) at 1uM [%]
CCCCc1cc(O)c(CCCC)c(O)c1	-9.37
COc1ccc(NCc2cccnc2)cc1	18.1
CCc1cc(=O)oc2c3c(cc(OCC(=O)NCCN4CCOCC4)c12)OC(C)(C)CC3	-10.6
CC(CCc1ccccc1)NC(=O)COC(=O)C(CCC(N)=O)NC(=O)c1ccc(F)cc1 (stereo not shown)	6.67
CCOC(=O)C1(CC2CCCCO2)CCN(S(=O)(=O)c2c(C)nn(C)c2C)CC1 (stereo not shown)	15.5
CCOc1ccccc1CNCCNC(=O)c1nonc1N.Cl	10.9
Cc1c(NC(=O)CSc2ccccc2Cl)c(=O)n(-c2ccccc2)n1C	8.98
CCN(Cc1ccccc1)C(c1ccc(C(F)(F)F)cc1)c1nnnn1C(C)(C)C (stereo not shown)	1.75
COc1cccc(CNC(=O)CC(NC(C)=O)c2ccccc2)c1 (stereo not shown)	2.13
COCCn1nnnc1SCC(=O)Nc1ccc2c(c1)OCO2	-1.39
COc1ccc(CNC(=O)C(C)Sc2ccc(C)cc2)cc1 (stereo not shown)	10.2
CN(C(=O)Cc1c(C(=O)O)n(C)c2ccccc12)c1cccc(C(F)(F)F)c1	16
CCOC(=O)c1ccc(N2C(=O)C3CCCN3C2=S)cc1 (stereo not shown)	6.14
CCN(CC(=O)Nc1ccccc1OC)CC(=O)Nc1c(Cl)ccc(C)c1Cl	10.3
Cc1c(C)n2c(SCC(=O)N3CCOCC3)nnc2[nH]c1=O	-3.22
COc1ccc(C(=O)NCCCN2CCOCC2)cc1OC	5.13
CCCC(=O)Nc1ccc(C2C(=O)c3ccccc3C2=O)cc1	19.2
O=C(Nc1ccc(F)cc1)Nc1ccccc1N1CCCCC1	11.4
CN(C1CCCCC1)C(CNS(=O)(=O)c1ccccc1)c1ccccc1 (stereo not shown)	12.3
O=C(c1ccc(Br)o1)N1CCN=C1SCc1cccnc1	3.64

SMILES	hERG current change (%, negative = inhibition) at 1uM [%]
COc1ccc(C(CNC(=O)c2ccc(S(=O)(=O)N3CCCC3)cc2)N(C)C)cc1OC (stereo not shown)	11.9
COc1ccc(/C=C/C(=O)NC(=S)Nc2ccc(N3CCN(C(C)=O)CC3)cc2)cc1	8.88
Cc1cccc(N(Cc2cc3ccc(C)cc3[nH]c2=O)S(=O)(=O)c2ccccc2)c1	10.6
COCCNC(=O)C1CCN(C(=O)c2cc3sccc3n2Cc2ccc(F)cc2)CC1	-3.16
CCSc1nnc(-c2cccc(S(=O)(=O)N(C)C)c2)n1-c1cc(OC)ccc1OC	-15.3
O=C(O)C1C2C=CC(O2)C1C(=O)Nc1cccc(C(F)(F)F)c1 (stereo not shown)	14.3
Cc1ccc([N+](=O)[O-])cc1N/C=C1\CCCCC1=O	16.5
O=C(NCCCNC(=O)c1ccccc1Cl)c1cnccn1	10.4
CC(C)CNC(=O)COCc1cc(-c2ccc3c(c2)OCO3)on1	10.6
CC(=O)CC(=O)Nc1nc(C)cc(C)n1	12.1
O=C(CSc1nnc(N2CCCC2)n1-c1ccccc1Cl)N1CCN(c2ccccn2)CC1	-0.848
CCCc1nnc(NC(=O)CCC(=O)NC2CCCc3ccccc32)s1 (stereo not shown)	8.75
O=C(N=C1SC2CS(=O)(=O)CC2N1c1cccc(Cl)c1Cl)C1CC1 (stereo not shown)	9.41
Cc1onc(-c2ccccc2)c1C(=O)c1c[nH]c(C(=O)NCc2ccccn2)c1	8.37
NS(=O)(=O)c1ccc(NS(=O)(=O)c2ccc(NC(=O)C3CC3)cc2)cc1	14.4
CCOc1nc(-c2ccc(Cl)cc2)nc2ccccc12	5.94
Cc1ccccc1N=C1c2cc([N+](=O)[O-])ccc2-c2ncccc21	11.2
O=[N+]([O-])/C=C/c1cc2ccccc2[nH]1	17
